# In all, about 360,000 compounds went through this assay and about 25,000 (6.9%) were called active. This list was built around the results that the source calls inconclusive (neither active nor inactive); the mix of calls is not that of the screen. Calls come from the whole dose curve; as a rule, active = well fitted inhibition curve with a large enough effect; inconclusive = small, poorly fitted or top-dose-only effect; inactive = flat fitted curve, though single readings scatter. Where the call is inconclusive, the potency comes from a doubtful curve fit.
# Target: Luciferin 4-monooxygenase (Photinus pyralis) (UniProt P08659)
# Chain of UniProt P08659 (P08659 whole entry, looked up): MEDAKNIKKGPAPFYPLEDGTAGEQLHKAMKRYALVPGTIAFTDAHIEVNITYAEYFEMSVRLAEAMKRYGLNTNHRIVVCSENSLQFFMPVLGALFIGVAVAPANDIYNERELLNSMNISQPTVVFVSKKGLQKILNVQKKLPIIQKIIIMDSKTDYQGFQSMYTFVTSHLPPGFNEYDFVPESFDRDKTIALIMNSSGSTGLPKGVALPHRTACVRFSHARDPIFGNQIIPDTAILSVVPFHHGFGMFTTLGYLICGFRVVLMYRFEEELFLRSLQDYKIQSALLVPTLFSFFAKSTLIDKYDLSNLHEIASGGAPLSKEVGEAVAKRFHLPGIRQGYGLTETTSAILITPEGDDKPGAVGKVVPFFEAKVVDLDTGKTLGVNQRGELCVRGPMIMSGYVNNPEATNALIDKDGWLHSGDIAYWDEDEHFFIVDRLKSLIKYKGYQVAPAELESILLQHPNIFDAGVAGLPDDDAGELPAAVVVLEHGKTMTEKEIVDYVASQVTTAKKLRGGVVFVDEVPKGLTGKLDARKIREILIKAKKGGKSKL
# Test: qHTS profiling assay for firefly luciferase inhibitor/activator using purifed enzyme and Km concentrations of substrates (counterscreen for miR-21 project); note: nearly all actives have a fitted effect of over 55% in size
# Conditions: purified FLuc, luminescence inhibition; series mostly up to 57.5 µM
# Text: MLPCN Grant: 1 R21 NS059478-01 (miR-21 grant) Assay Provider: NCGC NCGC Assay Overview: Firefly (Photinus pyralis) luciferase is one of the most commonly used transcriptional reporters for a number of reasons. It is considered one of the more dynamically responsive reporters -that is, responsive to changes in reporter transcription - as it requires no post-translational modifications and is enzymatically active directly after protein synthesis (Wood, 1998). Additionally, the half-life of the luciferase protein is short relative to other reporter-gene products (Wood, 1995). Whereas reporters with long half-lives potentially allow for increased signal due to accumulation of reporter-gene product, once accumulated in the cell, dynamic changes in reporter-gene expression may be difficult to detect(Fan and Wood, 2007; Almond et al., 2004). It has been shown that wild-type P. pyralis luciferase has a half-life of approximately […] hours in mammalian cells (Thompson et al., 1991). Firefly luciferase reporter-gene assays are also generally considered one of the most sensitive assay types (Wood, 1995; Wood, 1998). Although light produced in a bioluminescence reaction is of lower intensity than that produced during fluorescence emission, this is offset by little to no background light inherent to luminescent assays. Thus the luciferase reporter can be expressed at much lower levels than fluorescent proteins while still providing robust signal. # However, it was initially observed, in 1991, by Thompson et al., that compounds that resemble the substrates of firefly luciferase (FLuc) can act as competitive inhibitors of the enzyme, and that these compounds, upon interaction with luciferase in the cell, can actually stabilize the protein and increase its half-life. Accumulated intracellular FLuc protein can be measured as an increase in luminescence signal, upon addition of detection reagents (which contain high concentrations of FLuc substrates) commonly used in high-throughput screening. In cell-based reporter gene assays that use FLuc as the reporter gene to quantitate the potential influence of a given compound against the target biology, this apparent increase in luminescence can mistakenly be interpreted as identification of a compound that is active against the target of interest. This is the case for the miR-21 FLuc reporter gene assay used to identify inhibitors of the miR-21 pathway (PubChem AID 2289) - compounds of interest will inhibit miR-21 biogenesis/expression or activity, and are identified by causing an increase in luminescence, due to increased FLuc translation. However, FLuc inhibitory compounds that stabilize the FLuc protein will give an identical read-out, making it difficult to distinguish compounds that are active against the target from those active against FLuc. Previous profiling work to determine the prevalence of compounds that affect FLuc enzymatic activity (PubChem AID 411) identified that ~3% of the MLSMR library (then at ~72K) inhibited FLuc. […] Since the MLSMR had grown to ~350K compounds, and since it was expected that a significant percentage of compounds found active in the miR-21 FLuc assay would be FLuc inhibitors, the library was screened for activity against FLuc using a biochemical assay of purified FLuc and KM concentrations of FLuc substrates (D-luciferin and ATP).
# NCGC Assay Protocol Summary: Reagents: 50mM Tris acetate, pH 7.5; 10mM Mg acetate; 10uM D-luciferin (Sigma #L9504); 10uM ATP; 0.01% Tween-20; 0.05% BSA; 10nM P. pyralis luciferase (Sigma #L9506) Control compounds used were two known firefly luciferase inhibitors (compounds (2) and (5) in Auld et al., 2010), and DMSO. […]
# Tags give direction and shape of the fitted curve.
row,Compound,Potency
1,O=C(Nc1nc(-c2cc(F)ccc2F)cs1)C1=COCCO1,"inconclusive: 15.1 µM [inhibitor, partial curve]"
2,CC(=O)Nc1ccc(S(=O)(=O)Nc2cccc(C(=O)Nc3ccccc3C(=O)O)c2)cc1,"inconclusive: 30.1 µM [inhibitor, partial curve, poor fit]"
3,CC(C)OC(=O)c1cccc(C(=O)Oc2ccc(Br)cc2)n1,active: 9.53 µM
4,CCOc1ccc(NC(c2ccccn2)c2oc(CO)cc(=O)c2O)cc1 (configuration not stated),"inconclusive: 21.3 µM [inhibitor, single point]"
5,O=C(COC(=O)CNS(=O)(=O)c1ccc(Br)cc1Cl)NC1CCCC1,inactive
6,CCOCC(=O)Nc1ccc(F)c(F)c1,inactive
7,CCOc1ccc2nc(NC(=O)CN3CCN(c4ccccn4)CC3)sc2c1,"inconclusive: 13.5 µM [inhibitor, partial curve, poor fit]"
8,CCc1nnc(NS(=O)(=O)c2ccc(N3C(=O)c4ccc(C(=O)O)cc4C3=O)cc2)s1,"inconclusive: 23.9 µM [inhibitor, partial curve, poor fit]"
9,CCN1CCN(CCNC(=O)c2ccc(/C=C3/Sc4ccccc4N(Cc4cccc(C)c4)C3=O)cc2)CC1,"inconclusive: 37.9 µM [inhibitor, partial curve, poor fit]"
10,CC(C)N(C)S(=O)(=O)c1ccc(NC(=O)C2=COCCO2)cc1,"inconclusive: 30.1 µM [inhibitor, partial curve, poor fit]"
11,O=C(O)CCSCCCN1C(=O)c2cccc3cccc(c23)C1=O,"inconclusive: 21.3 µM [inhibitor, partial curve]"
12,Cc1ccc(Cl)cc1Nc1nc(-c2cccnc2)cs1,"inconclusive: 26.9 µM [inhibitor, single point]"
13,CC1(C)Cc2c(cnn2-c2ccc(F)cc2)C(NC(=O)C2=NNC(=O)CC2)C1 (configuration not stated),"inconclusive: 30.1 µM [inhibitor, single point]"
14,Cc1ccnc2nc(C(=O)Nc3nnc(-c4ccccc4)o3)nn12,"inconclusive: 23.9 µM [inhibitor, partial curve, poor fit]"
15,O=C(NCCCN1CCOCC1)c1sc2cc([N+](=O)[O-])ccc2c1Cl,"inconclusive: 10.7 µM [inhibitor, partial curve]"
16,CCSc1nc2sc3c(c2c2[n+]1CC(CBr)O2)CCCC3 (configuration not stated),"inconclusive: 42.6 µM [inhibitor, partial curve, poor fit]"
17,Cc1ccc2nc(COc3ccc(Cl)cc3)cc(=O)n2c1,"inconclusive: 7.57 µM [inhibitor, full curve]"
18,C=CCN=C(NC#N)SCC(=O)c1cccc(OC)c1,"inconclusive: 21.3 µM [inhibitor, partial curve, poor fit]"
19,CC1CCCCN1Cc1c(O)ccc2c(=O)c(-c3ccc(Cl)cc3)coc12 (configuration not stated),"inconclusive: 37.9 µM [inhibitor, partial curve, poor fit]"
20,O=C1C2C3C=CC(CC3)C2C(=O)N1c1ccc(Cl)cc1Cl (configuration not stated),active: 15.1 µM
21,O=C(O)c1cccc(-n2cccc2/C=C2/NC(=O)N(c3ccc(Cl)cc3)C2=O)c1,active: 26.9 µM

row,Compound,Potency
1,Cc1ccc(OCCOc2cccc(Br)c2)c([N+](=O)[O-])n1,"inconclusive: 19 µM [inhibitor, single point]"
2,CC(=O)n1cc([C@H]2C=C(C(=O)N3CCN(Cc4ccccc4)CC3)O[C@@H](OCCCCO)C2)c2ccccc21,inactive
3,COc1ccccc1CN(C)C(=O)c1cc(-c2cccs2)nc2ccccc12,inactive
4,CCOc1cccc2sc(NC(=O)c3ccc(S(=O)(=O)N4CCCCC4)cc3)nc12,"inconclusive: 4.26 µM [inhibitor, partial curve, poor fit]"
5,O=C(NNC(=O)c1cc2ccccc2cc1O)Nc1ccc(Br)cc1,"inconclusive: 30.1 µM [inhibitor, partial curve, poor fit]"
6,COc1ccc(CCNC(=O)c2nc(SCc3ccc(F)cc3)ncc2Cl)cc1OC,"inconclusive: 16.9 µM [inhibitor, partial curve, poor fit]"
7,CCOC(=O)c1csc(-c2ccc([N+](=O)[O-])cc2)n1,"inconclusive: 30.1 µM [inhibitor, single point]"
8,O=C(c1ccco1)N1CCN(C(=O)c2ccc(-c3ccccc3Cl)o2)CC1,active: 9.53 µM
9,Cc1cccnc1Nc1nc(-c2ccccn2)cs1,"inconclusive: 0.675 µM [inhibitor, partial curve, poor fit]"
10,Cc1cc(/C=C2\SC(=S)N(Cc3ccco3)C2=O)c(C)n1-c1ccccc1,active: 3.01 µM
11,O=C(Nc1cccc(S(=O)(=O)N2CCOCC2)c1)c1cc2c(s1)CCC2,active: 15.1 µM
12,O=C(N/N=C\c1cccc(Cl)c1)c1n[nH]c2c1CCCC2,active: 1.69 µM
13,CC1(C)CC(=O)C(CC(=O)Nc2cc(C(F)(F)F)ccc2Cl)C(=O)C1,"inconclusive: 37.9 µM [inhibitor, partial curve, poor fit]"
14,COc1ccc(OCc2cc(C(=O)NC(C)c3csc(C)n3)no2)c(Cl)c1 (configuration not stated),active: 13.5 µM
15,COc1ccc(OC)c(-c2csc(NC(=O)COC(=O)C3CC3)n2)c1,"inconclusive: 10.7 µM [inhibitor, partial curve]"
16,Cc1cccc(Nc2ncnc3ccccc23)c1,"inconclusive: 23.9 µM [inhibitor, single point]"
17,CCN1CCN(Cc2nc3cc(NC(=O)c4cccc([N+](=O)[O-])c4)ccc3n2CC)CC1,inactive
18,Cc1nc2nc(COc3ccccc3)[nH]n2c(=O)c1C,"inconclusive: 30.1 µM [inhibitor, partial curve, poor fit]"
19,O=C(OCc1nnc(-c2ccc(Cl)cc2)o1)c1ccc(O)cc1,"inconclusive: 16.9 µM [inhibitor, partial curve]"
20,CCc1nnc(NS(=O)(=O)c2ccc(NC(=O)c3ccc(C#N)cc3)cc2)s1,"inconclusive: 21.3 µM [inhibitor, partial curve, poor fit]"
21,Cc1c(CCO)c(=O)n(C)n1C(=O)c1ccc(Cl)cc1,"inconclusive: 37.9 µM [inhibitor, partial curve, poor fit]"
